Experimental data reported in PubChem BioAssay AID1963576 (National Center for Advancing Translational Sciences (NCATS), 2024).
About 60 (0.1%) of roughly 46,000 compounds were called active. Roughly 3% stayed inconclusive and do not appear here. The call rests on the fitted dose curve; in most records, active means well fitted inhibition curve with a large enough effect; inconclusive means small, poorly fitted or top-dose-only effect; inactive means no such curve, though single readings can be large or run the other way. Some of the results follow.

Assay: Primary qHTS assay for Inhibitors of ovarian cancer metastasis using an organotypic tumor microenvironment (TME) model. Further: nearly all actives have a fitted effect of over 65% in size.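 On activity change, negative = inhibition: plate controls were DMSO wells for no effect and tomatine positive control wells for full effect.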
Details: SKOV3ip1-GFP adhesion/invasion on 3D omental model, fluorescence; series mostly up to 45.8 µM; activity change, negative = inhibition: at the top concentration
Procedure, shortened: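 qHTS, 4-pt dose (0.36-46 umol/L); SKOV3ip1-GFP, 1,200 cells/well, no FBS; primary omental fibroblast/mesothelial co-culture 48 h pre-grown; 2 h RT + 16 h 37 C; PBS wash, 4% PFA; GFP count 488/509 nm.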

Activity change, negative = inhibition, inactive:
CCc1ccc(NC(=O)CSc2nc3ccccc3c(=O)n2CCC(=O)NC2CCCCC2)cc1 -13.3%
CC(C)Oc1cccc(C(=O)Nc2ccc3oc(-c4ccccc4)nc3c2)c1 -12.6%
Cc1ccc2nc(CN3CCN(S(=O)(=O)c4ccccc4)CC3)oc2c1 6.91%
O=C(Cn1cc(S(=O)(=O)Cc2ccccc2Cl)c2ccccc21)Nc1cccc(C(F)(F)F)c1 -1.69%
Cc1ccc(S(=O)(=O)N(CC(=O)Nc2c(C)cccc2C)c2cccc(Cl)c2)cc1 -2.69%
COC(=O)c1cc2oc3ccccc3c2n1CC(=O)Nc1ccc(N(C)C)cc1 -15.1%
Nc1c(-c2nc(-c3ccccc3Cl)no2)nnn1-c1ccccc1F 0.467%
Cc1ccc(NC(=O)COc2ccc(-c3nn(C)c(=O)c4ccccc34)cc2)c(C)c1 -28.4%
Cc1ccc(N2CCN(S(=O)(=O)c3cc(Br)cc4c3N(C(=O)C3CC3)CC4)CC2C)cc1 (configuration not stated) 19.4%
CCOc1cc(-c2nnc(SCC(=O)NCCCOC)nc2-c2ccc(OC)c(OCC)c2)ccc1OC 1.41%
COc1ccc(NC(=O)C(NS(=O)(=O)c2cccc3nsnc23)c2ccccc2)cc1 (configuration not stated) 7.39%
CCC(=O)Nc1nnc(S(=O)(=O)N2CCCCCC2)s1 4.06%
COc1ccc(N2CC(NC(=O)Cc3cccs3)CC2=O)cc1OC (configuration not stated) -7.5%
CCS(=O)(=O)N1CC(=O)N(c2ccc(C)c(C)c2)C(C)(C(=O)NC2CCCCCC2)C1 (configuration not stated) 9.25%
C[C@H]1c2cccc(O)c2C(O)=C2C(=O)[C@]3(O)C(O)=C(C(N)=O)C(=O)[C@@H](N(C)C)[C@@H]3[C@@H](O)[C@@H]21 -1.11%
Cc1ccc(NC(=O)COCc2cc(-c3cccs3)on2)cc1Cl -9.21%
CCCCNS(=O)(=O)c1ccc2nc(-c3cccnc3)cc(C(=O)NCCCOCC)c2c1 -16.9%
CCc1ccccc1N1C(=O)N(C)c2ccccc2S1(=O)=O -18%
COC(=O)c1ccc(NC(=O)CN(c2cccc(C(F)(F)F)c2)S(C)(=O)=O)cc1 12.6%
Cc1cccc(-n2c(SCC(=O)Nc3ccccc3C)nc3c(oc4ccccc43)c2=O)c1 0.384%
Cc1[nH]c2ccccc2c1C(=O)C(=O)NC1CC(=O)N(c2ccccc2)C1 (configuration not stated) -0.536%
CCOc1ccccc1CNC(=O)CCn1cccn1 4.61%
CCCN(CCC)CCCNC(=O)C1CCN(S(=O)(=O)c2cccc3nsnc23)CC1 5.8%
COc1cccc(CSc2nc(-c3ccccc3OC)nc3c2Cc2c(CO)cnc(C)c2O3)c1 -5.68%
Cc1ccccc1C(C(=O)NC1CCCC1)N(C(=O)Cn1cnc2ccccc21)c1cccc(F)c1 (configuration not stated) -9.74%
CSc1nn(Cc2ccc(F)cc2)c(N)c1S(=O)(=O)c1ccc(Cl)cc1 7.64%
CCN(C(=O)c1ccc2c(=O)n3c(nc2c1)CCCCC3)c1cc(C)ccc1C -4.31%
Cc1ccc(-c2nc3cc(NC(=O)c4cc(Br)ccc4Cl)ccc3o2)cc1 4.3%
CCOc1ccccc1C(=O)N1CCCCC1CCN1CCOCC1 (configuration not stated) 22.8%
CCC(=O)N1CCc2cc(S(=O)(=O)NC(C(=O)NCCc3ccc(C)cc3)C(C)C)ccc21 (configuration not stated) -8.44%
CCCOc1cccc(C2c3c(oc4cc(C)c(C)cc4c3=O)C(=O)N2CCCN2CCOCC2)c1 (configuration not stated) 7.77%
CSc1cccc(NC(=O)CN(C)S(=O)(=O)c2ccc3c(c2)CCCN3C(C)=O)c1 -3.01%
CC(C)c1nn2c(=O)cc(COC(=O)c3ccccc3Cl)nc2s1 6.56%
CCOc1cc2[nH]c(=O)n(CCCCCC(=O)NC(C)CC)c(=O)c2cc1OCC (configuration not stated) 0.615%
COc1ccc(N2CCN(Cc3nc(-c4ccc(C)cc4)no3)CC2)cc1 1.35%
CC1CCN(S(=O)(=O)c2cn(CC(=O)Nc3ccc(F)cc3)c(=O)c3ccccc23)CC1 -4.62%
Cc1cc(C)n2c(Nc3cccc(C(F)(F)F)c3)c(-c3ccsc3)nc2n1 -2.52%
COc1ccc2nc3cc(Cl)ccc3c(Nc3cc(CN4CCCC4)c(O)c(CN4CCCC4)c3)c2n1 1.66%
CCC(Cc1ccccc1)NC(=O)Cn1ncc2c3ccccc3n(Cc3ccc(F)cc3)c2c1=O (configuration not stated) -22.3%
O=C(O)CCn1ccc2cc(S(=O)(=O)N3CCCCC3)ccc21 -7.08%
CCOc1ccccc1NC(=O)c1nnn(CC(=O)Nc2ccccc2CC)c1N -4.08%
COc1ccc(NC(=O)c2[nH]nc3c2CSc2ccccc2-3)c(OC)c1 7.45%
O=C(Cn1nnnc1-c1ccccc1F)Nc1ccc(F)c(F)c1 19.5%
O=C(CN1CCN(c2ccc(Cl)cc2)CC1)Nc1ccc(F)c(F)c1 -5.88%
CCC(=O)N1c2ccccc2CC1C(=O)NCCc1ccc(Cl)cc1 (configuration not stated) 7.57%

outcome, inactive:
Cc1nc2nc(C)c(CCC(=O)NCCc3ccccc3)c(C)n2n1
CCC(Sc1nc2cc3c(cc2c(=O)n1CCCC(=O)NCc1ccc2c(c1)OCO2)OCO3)C(=O)NCCCOC (configuration not stated)
CCC(=O)N1c2ccc(S(=O)(=O)N3CCCCCC3)cc2CC1C (configuration not stated)
CCC(CC)c1nn2cc(-c3ccccc3)nc2s1
Cn1cc(S(=O)(=O)N2CCCCC2)cc1C(=O)NCc1ccc(Cl)cc1
Cc1cc(S(=O)(=O)Nc2ccc3[nH]c(=O)sc3c2)ccc1F
COc1ccc(-c2cn3c(n2)sc2cc(C(=O)N4CCCCC4)ccc23)cc1
CCCN(C(=O)c1cn(CC(C)C)c(=O)c2cc(OC)c(OC)cc12)c1cccc(C)c1
CCCCOC(=O)c1ccc(NC(=O)/C(C#N)=C/c2ccc(C)o2)cc1
CCOc1ccc(S(=O)(=O)N2CCN(c3ccc(C)cc3C)CC2)c2ccccc12
O=C1COc2ccc(-c3cc(-c4ccc(F)cc4)c4c(n3)-c3ccccc3OC4)cc2N1
Cc1ccc(C)c(C(=O)CSc2nc3cc(C(=O)NC4CCCC4)ccc3c(=O)n2CC2CCCO2)c1 (configuration not stated)
COCc1cc(C)n(CC(=O)Nc2cccc(C(C)=O)c2)c(=O)c1C#N
Cc1nnc(NC(=O)CSCc2cc(=O)c3ccc(C)c(C)c3[nH]2)s1
O=C(NCc1ccccc1Cl)C1CCN(c2ncnc3c2nc2n3CCCCC2)CC1
COc1ccc(-c2csc(-c3c(N)c(C(=O)c4ccccc4)n4ccccc34)n2)cc1
CCn1cc2nc(SCc3cccc(F)c3)n(CCc3ccccc3)c(=O)c2n1
